Some of the results follow.
tested on: HSkMC (human skeletal muscle cells); assay: cytotoxicity call (relative viability < 0.9); conditions: 10 µM

Structure (SMILES) | cytotoxicity call
C[C@H]1CN([C@@H](C)CO)C(=O)c2cc(NS(=O)(=O)c3cn(C)cn3)ccc2O[C@H]1CN(C)CC1CCCCC1 | inactive
Cc1cc(C(C)(C)C)c(O)c(C)c1CC1=NCCN1.Cl | inactive
CO[C@@H]1CN(C)C(=O)c2cc(NC(=O)Nc3ccc(Cl)cc3)ccc2OC[C@@H](C)N(C(=O)Nc2c(C)noc2C)C[C@H]1C | inactive
C[C@@H]1CN([C@@H](C)CO)C(=O)Cc2cc(NS(=O)(=O)c3ccc(F)cc3)ccc2O[C@H]1CN(C)S(=O)(=O)c1cn(C)cn1 | inactive
CCCNC(=O)N(C)C[C@H]1Oc2cc(C#Cc3cccc(F)c3)ccc2S(=O)(=O)N([C@@H](C)CO)C[C@H]1C | inactive
Cc1noc(C)c1S(=O)(=O)Nc1ccc2c(c1)C(=O)N([C@H](C)CO)C[C@H](C)[C@@H](CN(C)Cc1ccccc1)OCCCC[C@H](C)O2 | inactive
CCCNC(=O)N1C[C@H](C)[C@H](OC)CN(C)C(=O)c2ccc(NS(=O)(=O)CC(F)(F)F)cc2OC[C@@H]1C | inactive
COc1ccc(NC(=O)Nc2ccc3c(c2)C(=O)N([C@@H](C)CO)C[C@H](C)[C@@H](CN(C)Cc2ccccc2)OCCCC[C@@H](C)O3)cc1 | inactive
C[C@H](CO)N1C[C@H](C)[C@@H](CN(C)Cc2ccc(Oc3ccccc3)cc2)Oc2c(NC(=O)Nc3ccc(C(F)(F)F)cc3)cccc2C1=O | active
C[C@@H]1CCCCO[C@@H](CN(C)Cc2ccc(Cl)c(Cl)c2)[C@@H](C)CN([C@@H](C)CO)C(=O)c2cc(NC(=O)c3ccccc3)ccc2O1 | inactive
COc1ccc(S(=O)(=O)N(C)C[C@@H]2Oc3c(NC(=O)c4ccncc4)cccc3C(=O)N([C@H](C)CO)C[C@@H]2C)cc1 | inactive
O=c1nc[nH]c2ccccc12 | inactive
C[C@@H]1CN([C@H](C)CO)C(=O)Cc2cc(NC(=O)CCN3CCOCC3)ccc2O[C@@H]1CN(C)Cc1ccc(C(=O)O)cc1 | inactive
Cc1noc(C)c1NC(=O)Nc1ccc2c(c1)C(=O)N([C@@H](C)CO)C[C@@H](C)[C@H](CN(C)S(=O)(=O)c1ccc(F)cc1)OCCCC[C@@H](C)O2 | inactive
C[C@H](CO)N1C[C@H](C)[C@H](CN(C)Cc2ccc(Oc3ccccc3)cc2)Oc2c(NC(=O)C3CCOCC3)cccc2C1=O | inactive
COc1ccc(CN(C)C[C@H]2Oc3ccc(NC(=O)CCCCCC(=O)Nc4ccccc4N)cc3CC(=O)N([C@@H](C)CO)C[C@H]2C)cc1 | inactive
COc1ccc(CN(C)C[C@H]2OCCCC[C@H](C)Oc3ccc(NS(=O)(=O)c4ccc(F)cc4)cc3C(=O)N([C@@H](C)CO)C[C@H]2C)cc1 | inactive
N=C(N)Nc1nc2ccccc2[nH]1 | inactive
Cc1ccc(S(=O)(=O)N(C)C[C@H]2Oc3ccc(NS(=O)(=O)c4cn(C)cn4)cc3C(=O)N([C@H](C)CO)C[C@H]2C)cc1 | inactive
C[C@H](CO)N1C[C@H](C)[C@H](CN(C)S(=O)(=O)c2ccc(F)cc2)Oc2cc(Br)ccc2S1(=O)=O | inactive
C[C@@H]1CN([C@@H](C)CO)C(=O)c2cccc(NC(=O)Nc3ccc(C(F)(F)F)cc3)c2O[C@@H]1CN(C)S(=O)(=O)c1ccc(Cl)cc1 | inactive
C[C@H]1CN([C@@H](C)CO)C(=O)c2cccc(NC(=O)c3nc4ccccc4s3)c2O[C@H]1CN(C)CC1CCCCC1 | inactive
O=C(C[C@@H]1C=C[C@@H](NC(=O)CN2CCOCC2)[C@H](CO)O1)NC1CCCCC1 | inactive
C[C@H]1CN([C@@H](C)CO)C(=O)c2cc(NC(=O)c3ccncc3)ccc2O[C@H]1CN(C)Cc1ccc(C(=O)O)cc1 | inactive
CN(C)C(=N)N=C(N)N | inactive
C[C@H]1CN([C@@H](C)CO)S(=O)(=O)c2ccc(-c3ccc(F)cc3)cc2O[C@H]1CN(C)S(C)(=O)=O | inactive
C[C@H](CO)N1C[C@H](C)[C@@H](CN(C)C(=O)CN2CCOCC2)Oc2ncc(-c3cncnc3)cc2C1=O | inactive
C[C@H](CO)N1C[C@H](C)[C@@H](CN(C)C(=O)Cc2ccccc2)OCCCC[C@H](C)Oc2ccc(NC(=O)Nc3ccc4c(c3)OCO4)cc2C1=O | inactive
COc1ccc(NC(=O)Nc2ccc3c(c2)CC(=O)N([C@H](C)CO)C[C@H](C)[C@@H](CN(C)Cc2ccc(C(F)(F)F)cc2)O3)cc1 | inactive
